Here are results for 54 molecules from ChEMBL document CHEMBL4888484, “Replenishing the malaria drug discovery pipeline: Screening and hit evaluation of the MMV Hit Generation Library 1 (HGL1) against asexual blood stage Plasmodium falciparum ,using a nano luciferase reporter read-out” (2022).

SMILES strings stand for the structures. About 540 (0.36%) of roughly 150,000 compounds showed an effect of 50% or more. This is one part of the list.

This assay relates to Plasmodium falciparum. Description: Primary screen in NF54 nanoGlo assay, in single point, at 2uM, 72h; a lower Z score goes with more inhibition. The following applies: timepoint 72 hour. It counts as functional, Erythrocyte.
With `CC(=O)N1CC[C@H](Nc2ccc(C#N)nc2)c2ccc(F)cc2C1`, the “% Inhibition” value is -9% and the Z score is recorded as 0.94.
For the molecule `CCN(CC1CCCO1)C(=O)C1CCN(C)C(=O)C1` (stereo not drawn), the “% Inhibition” value is listed as -3% and the Z score was 0.39.
The corresponding values for `CC(C)N1CCC(N(C)CC2CCCOC2)C1=O` (stereo not drawn) are -1% and 0.08.
The matching figures for `COC[C@H](NC(=O)c1cnn(C(C)C)c1)c1ccccn1`: 2% and -0.32.
As for `Cc1nc[nH]c1-c1cc(C(C)(C)C)nc(N)c1C#N`, the “% Inhibition” value is -8% and the Z score worked out at 1.45.
In the case of `CCn1cc(S(=O)(=O)NCCN2CCCC[C@@H]2CO)cn1`, the “% Inhibition” value is reported as -17% and the Z score worked out at 1.61.
In the case of `Cc1cc(C#N)c(N2CCO[C@H](C3CC3)C2)nc1C`, the “% Inhibition” value was 5% and the Z score is -0.99.
The matching figures for `O=C(N[C@H](c1ccccc1)C1CCC1)N(CCO)C1CC1`: -6% and 0.83.
The corresponding values for `Cc1cccc(NC(=O)N2CCN(CCn3c(C)nc4cccnc43)CC2)c1C` are -8% and 1.04.
On to `COc1ccc(N2C[C@@H](NC(=O)c3ccc(S(=O)(=O)N4CCOCC4)cc3)CC2=O)cc1OC`, for which the “% Inhibition” value is recorded as -9% and the Z score is 1.64.
`Brc1ccc(-c2ccc(-c3nnc(-c4ccco4)o3)o2)cc1`: the “% Inhibition” value is listed as -7% and the Z score is given as 1.
For the molecule `CCC=C(C)C(=O)NCCc1nccs1`, the “% Inhibition” value is -1% and the Z score amounted to 0.1.
As for `CCc1noc(C)c1C(=O)N(CC)c1cccnc1C`, the “% Inhibition” value is 3% and the Z score is listed as -0.49.
On to `Cc1ccc(F)c(NC(=O)c2ccc(Cn3cc(Br)cn3)o2)c1`, for which the “% Inhibition” value is reported as 4% and the Z score was -0.5.
On to `Cc1cnc(CNC(=O)[C@H]2CC(=O)OC23CCCC3)cn1`, for which the “% Inhibition” value is on record as -7% and the Z score was determined as 1.32.
The corresponding values for `CCc1nc(C)c(C(=O)N[C@@H](C)C(=O)Nc2ccc(F)cc2C)o1` are -3% and 0.49.
The matching figures for `CC[C@H](C)N(Cc1c(C(C)C)nn(-c2ccccc2)c1N(C)C)C(=O)C(C)C`: -13% and 2.15.
On to `Cc1noc(C)c1CN(C)C(=O)c1n[nH]c2c1COCC2`, for which the “% Inhibition” value was -24% and the Z score is 2.62.
As for `O=C1C(N2C(=O)[C@H]3CCCN3C2=O)CCN1CCCc1ccccc1` (stereo partly drawn), the “% Inhibition” value is 7% and the Z score is reported as -0.83.
As to `CCCc1nnsc1C(=O)N[C@@H]1C[C@H]2C(=O)N(C)CC(=O)N2C1`, the “% Inhibition” value is reported as -4% and the Z score was found to be 0.39.
Regarding `C=CCOc1nc2c(cc1C#N)CCC2`, the “% Inhibition” value is reported as 2% and the Z score was -0.32.
Take `Cc1cc(C)cc(CCNS(C)(=O)=O)c1`: the “% Inhibition” value is recorded as -12% and the Z score is listed as 2.27.
Take `CCNc1nc(C)c(C(=O)N2CCOC(C)(C)C2)s1`: the “% Inhibition” value is on record as -6% and the Z score is 1.01.
With `CN(CCC1OCCO1)[C@@H](C(N)=O)c1cccc(F)c1`, the “% Inhibition” value is recorded as 4% and the Z score is recorded as -0.41.
The corresponding values for `COc1ccc([C@@H](NCC#N)C(F)(F)F)cc1F` are 2% and -0.25.
For `CCN1CCC(CC(=O)NC[C@H](O)c2ccc(F)cc2)CC1`, the “% Inhibition” value is listed as -4% and the Z score came to 0.68.
For the molecule `COc1ccc(CC(=O)Nc2cnn(-c3ncc(N(C)C)cn3)c2)c(Cl)c1`, the “% Inhibition” value was -12% and the Z score was 1.91.
Consider `Cc1ccn2c(C(=O)N3C[C@]4(C)C[C@H]3CC(C)(C)C4)nnc2n1`, for which the “% Inhibition” value is given as -6% and the Z score is 0.78.
`Fc1ccc2sc(CCNc3ncc(Br)cn3)nc2c1`: the “% Inhibition” value is -4% and the Z score is on record as 0.7.
Turning to `Cc1cc(Cl)ccc1OCc1nc(-c2ccc(S(=O)(=O)N3CCOCC3)cc2)no1`, the “% Inhibition” value turned out to be 0% and the Z score is listed as 0.07.
In the case of `Cc1cccc(-c2noc(N3CCOCC3)c2CN(Cc2ccccc2)C(=O)c2cccc(F)c2)c1`, the “% Inhibition” value is reported as 3% and the Z score is given as -0.36.
The corresponding values for `O=c1nc(Nc2ccc(N3CCCCC3)cc2)cn[nH]1` are -2% and 0.3.
As for `COC(=O)[C@H](CO)NC(=O)C1Cc2ccccc2N(C)C1` (stereo partly drawn), the “% Inhibition” value is on record as -1% and the Z score amounted to 0.1.
The corresponding values for `Cc1ccccc1NC(=O)c1ccc(N2C(=O)[C@@H](C)CS2(=O)=O)cc1Cl` are -8% and 1.06.
As for `CN1CCN(C[C@H]2CCCN(C(=O)c3cc(F)cc(C#N)c3)C2)CC1`, the “% Inhibition” value is given as -10% and the Z score is 1.33.
The corresponding values for `COc1ccc(OC)c2c1cc(C(=O)N1C[C@@H]3C[C@@H](C1)C1CCCC(=O)N1C3)n2C` (stereo partly drawn) are -20% and 2.5.
As for `C[C@H]1CN(C(=O)c2csc3ccccc23)CC(=O)N1`, the “% Inhibition” value is given as -23% and the Z score turned out to be 2.42.
With `CCN1C[C@H](NS(=O)(=O)c2cnn(C)c2C)[C@@H](OC)C1`, the “% Inhibition” value is on record as -13% and the Z score is 1.68.
In the case of `Cc1nonc1CN1CC[C@@]2(CCCN(C3CCCCC3)C2=O)C1`, the “% Inhibition” value was -1% and the Z score is 0.17.
Consider `O=C([C@H](O)c1ccccc1)N1CCc2[nH]c(-c3ccccc3)nc2C1`, for which the “% Inhibition” value is -17% and the Z score stood at 2.3.
For the molecule `Cc1cc(COCC(=O)N2CC3C(C2)C3(C)C)on1` (stereo not drawn), the “% Inhibition” value is listed as -9% and the Z score stood at 0.93.
`Nc1nc2c(s1)CN(CCc1ccccc1)CC2`: the “% Inhibition” value amounted to 32% and the Z score is given as -6.83.
Consider `CCO[C@H]1CC(NCc2ccccc2OC)[C@@]12CCCO2` (stereo partly drawn), for which the “% Inhibition” value is -2% and the Z score was 0.32.
With `CCC(C)(CC)[C@@](O)(C#CC[N+]1(Cc2ccccc2)CCCCC1)c1ccccc1`, the “% Inhibition” value is listed as 38% and the Z score is given as -1.99.
The corresponding values for `COc1ccc(-c2c(O)nnc3c(-c4ccccc4)cnn23)cc1` are -17% and 2.12.
As for `COCCN1C[C@H](O)C(C)(C)COCCC[C@H]2CN(Cc3ccc(OC(F)(F)F)cc3)CC[C@H]2CC1=O`, the “% Inhibition” value is given as 12% and the Z score is -1.93.
On to `CO[C@@H](C)c1nc(CN(C)C(=O)c2cn(C)nc2C2CC2)cs1`, for which the “% Inhibition” value is -5% and the Z score was found to be 0.7.
Regarding `CCCS(=O)(=O)N(CCOC)CC(=O)N(Cc1ccc(Cl)cc1)C1CCN(C(=O)c2cccs2)CC1`, the “% Inhibition” value was -16% and the Z score came to 2.19.
The matching figures for `C[C@H]1CCCN(C2CCN(c3c4c(nc5ncnn35)CCCC4)CC2)C1`: -11% and 1.14.
On to `Cc1oc(-c2cccc(F)c2F)nc1CN(Cc1ccccc1)CC1CC1`, for which the “% Inhibition” value is recorded as -12% and the Z score is listed as 1.44.
On to `COc1ccc(-c2cc(C(=O)N[C@@H](C)C(=O)N3CCN(C)CC3)no2)c(OC)c1`, for which the “% Inhibition” value is -2% and the Z score was 0.36.
`CC[C@H](NCc1cc(C)c(OC(C)=O)c(C)c1)c1ccnn1C`: the “% Inhibition” value is given as -14% and the Z score was 1.84.
With `CCNC(=O)N1CC=C(C(=O)Nc2ccccc2F)CC1`, the “% Inhibition” value was -2% and the Z score is recorded as 0.37.
As for `CCC(C(=O)O)N1CCC2C(CCCN2Cc2ccccc2)C1` (stereo not drawn), the “% Inhibition” value is -10% and the Z score is 1.57.

The term % Inhibition denotes the drop in the measured response relative to a control, in per cent.
